# From the supplement of paper PMC8728848
# The other results are listed elsewhere or left out.
# B1: AAL (Aleuria aurantia) (protein)
# chain: MPTEFLYTSKIAAISWAATGGRQQRVYFQDLNGKIREAQRGGDNPWTGGSSQNVIGEAKLFSPLAAVTWKSAQGIQIRVYCVNKDNILSEFVYDGSKWITGQLGSVGVKVGSNSKLAALQWGGSESAPPNIRVYYQKSNGSGSSIHEYVWSGKWTAGASFGSTVPGTGIGATAIGPGRLRIYYQATDNKIREHCWDSNSWYVGGFSASASAGVSIAAISWGSTPQIRVYWQKGREELYEAAYGGSWNTPGQIKDASRPTPSLPDTFIAANSSGNIDISVFFQASGVSLQQWQWISGKGWSIGAVVPTGTPAGW
# Experiments:
# Assay in all cases: glycan array binding signal (z-score within array); higher = stronger binding
# Conditions in all cases: glycan notation: IUPAC condensed, linker removed; mutation: N224Q
# [1] = biological target: Fuc(a1-2)[Gal(a1-3)]Gal(b1-4)GlcNAc(b1-2)Man(a1-3)[Fuc(a1-2)[Gal(a1-3)]Gal(b1-4)GlcNAc(b1-2)Man(a1-6)]Man(b1-4)GlcNAc(b1-4)GlcNAc
# In short: (§1)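 Arrays were curated from the Consortium for Functional Glycomics database, 3228 in total, and kept only where the protein sequence was available. Binding is expressed as a within-array Z-score. This score was averaged across arrays of the same protein sequence at different concentrations or buffers and across linkers, and negative values can be read as non-binding.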
# [2] = biological target: Fuc(a1-2)[Gal(a1-3)]Gal(b1-4)GlcNAc(b1-2)Man(a1-3)[Fuc(a1-2)[Gal(a1-3)]Gal(b1-4)GlcNAc(b1-2)Man(a1-6)]Man(b1-4)GlcNAc(b1-4)[Fuc(a1-6)]GlcNAc
# In short: as §1
# [3] = biological target: Fuc(a1-2)[Gal(a1-3)]Gal(b1-4)GlcNAc(b1-3)GalNAc
# In short: as §1
# [4] = biological target: Fuc(a1-2)[Gal(a1-3)]Gal(b1-4)GlcNAc(b1-3)[Fuc(a1-2)[Gal(a1-3)]Gal(b1-4)GlcNAc(b1-6)]GalNAc
# In short: as §1
# [5] = biological target: Fuc(a1-2)[Gal(a1-3)]Gal(b1-4)GlcNAc(b1-6)GalNAc
# In short: as §1
# [6] = biological target: Fuc(a1-2)[Gal(a1-3)]Gal(b1-4)[Fuc(a1-3)]Glc
# In short: as §1
# [7] = biological target: Fuc(a1-2)[Gal(a1-3)]Gal(b1-4)[Fuc(a1-3)]GlcNAc
# In short: as §1
# [8] = biological target: Fuc(a1-2)[Gal(a1-3)]Gal(b1-4)[Fuc(a1-3)]GlcNAc(b1-3)GalNAc
# In short: as §1
# [9] = biological target: Fuc(a1-2)[Gal(a1-4)]Gal(b1-4)GlcNAc
# In short: as §1
# [10] = biological target: Fuc(a1-2)[GalNAc(a1-3)]Gal
# In short: as §1
# [11] = biological target: Fuc(a1-2)[GalNAc(a1-3)]Gal(b1-3)GalNAc(a1-3)[Fuc(a1-2)]Gal(b1-4)GlcNAc
# In short: as §1
# [12] = biological target: Fuc(a1-2)[GalNAc(a1-3)]Gal(b1-3)GalNAc(b1-3)Gal(a1-4)Gal(b1-4)Glc
# In short: as §1
# [13] = biological target: Fuc(a1-2)[GalNAc(a1-3)]Gal(b1-3)GlcNAc
# In short: as §1
# [14] = biological target: Fuc(a1-2)[GalNAc(a1-3)]Gal(b1-3)GlcNAc(b1-2)Man(a1-3)[Fuc(a1-2)[GalNAc(a1-3)]Gal(b1-3)GlcNAc(b1-2)Man(a1-6)]Man(b1-4)GlcNAc(b1-4)GlcNAc
# In short: as §1
# [15] = biological target: Fuc(a1-2)[GalNAc(a1-3)]Gal(b1-3)GlcNAc(b1-2)Man(a1-3)[Fuc(a1-2)[GalNAc(a1-3)]Gal(b1-3)GlcNAc(b1-2)Man(a1-6)]Man(b1-4)GlcNAc(b1-4)[Fuc(a1-6)]GlcNAc
# In short: as §1
# [16] = biological target: Fuc(a1-2)[GalNAc(a1-3)]Gal(b1-3)GlcNAc(b1-3)GalNAc
# In short: as §1
# [17] = biological target: Fuc(a1-2)[GalNAc(a1-3)]Gal(b1-3)GlcNAc(b1-6)GalNAc
# In short: as §1
# [18] = biological target: Fuc(a1-2)[GalNAc(a1-3)]Gal(b1-4)Glc
# In short: as §1
# [19] = biological target: Fuc(a1-2)[GalNAc(a1-3)]Gal(b1-4)GlcNAc
# In short: as §1
# [20] = biological target: Fuc(a1-2)[GalNAc(a1-3)]Gal(b1-4)GlcNAc(b1-2)Man
# In short: as §1
# [21] = biological target: Fuc(a1-2)[GalNAc(a1-3)]Gal(b1-4)GlcNAc(b1-2)Man(a1-3)[Fuc(a1-2)[GalNAc(a1-3)]Gal(b1-4)GlcNAc(b1-2)Man(a1-6)]Man(b1-4)GlcNAc(b1-4)GlcNAc
# In short: as §1
# [22] = biological target: Fuc(a1-2)[GalNAc(a1-3)]Gal(b1-4)GlcNAc(b1-2)Man(a1-3)[Fuc(a1-2)[GalNAc(a1-3)]Gal(b1-4)GlcNAc(b1-2)Man(a1-6)]Man(b1-4)GlcNAc(b1-4)[Fuc(a1-6)]GlcNAc
# In short: as §1
# [23] = biological target: Fuc(a1-2)[GalNAc(a1-3)]Gal(b1-4)GlcNAc(b1-3)Gal(b1-4)GlcNAc
# In short: as §1
# [24] = biological target: Fuc(a1-2)[GalNAc(a1-3)]Gal(b1-4)GlcNAc(b1-3)Gal(b1-4)GlcNAc(b1-3)Gal(b1-4)GlcNAc
# In short: as §1
# [25] = biological target: Fuc(a1-2)[GalNAc(a1-3)]Gal(b1-4)GlcNAc(b1-3)GalNAc
# In short: as §1
# [26] = biological target: Fuc(a1-2)[GalNAc(a1-3)]Gal(b1-4)GlcNAc(b1-3)[Fuc(a1-2)[GalNAc(a1-3)]Gal(b1-4)GlcNAc(b1-6)]GalNAc
# In short: as §1
# [27] = biological target: Fuc(a1-2)[GalNAc(a1-3)]Gal(b1-4)GlcNAc(b1-6)GalNAc
# In short: as §1
# [28] = biological target: Fuc(a1-2)[GalNAc(a1-3)]Gal(b1-4)[Fuc(a1-3)]GlcNAc
# In short: as §1
# [29] = biological target: Fuc(a1-2)[GalNAc(a1-3)]Gal(b1-4)[Fuc(a1-3)]GlcNAc(b1-3)GalNAc
# In short: as §1
# [30] = biological target: Fuc(a1-2)[GalNAc(a1-4)]Gal(b1-4)GlcNAc
# In short: as §1
# [31] = biological target: Fuc(a1-2)[GalNAc(b1-3)]Gal
# In short: as §1
# Fuc(a1-3)GlcNAc = biological target: Fuc(a1-3)GlcNAc
# In short: as §1
# [32] = biological target: Fuc(a1-3)[Gal(b1-4)]Glc6S
# In short: as §1
# [33] = biological target: Fuc(a1-3)[Gal(b1-4)]GlcNAc
# In short: as §1
# [34] = biological target: Fuc(a1-3)[Gal(b1-4)]GlcNAc(b1-2)Man
# In short: as §1
# [35] = biological target: Fuc(a1-3)[Gal(b1-4)]GlcNAc(b1-2)Man(a1-3)[Fuc(a1-3)[Gal(b1-4)]GlcNAc(b1-2)Man(a1-6)]Man(b1-4)GlcNAc(b1-4)GlcNAc
# In short: as §1
# [36] = biological target: Fuc(a1-3)[Gal(b1-4)]GlcNAc(b1-2)Man(a1-3)[Fuc(a1-3)[Gal(b1-4)]GlcNAc(b1-2)Man(a1-6)]Man(b1-4)GlcNAc(b1-4)[Fuc(a1-6)]GlcNAc
# In short: as §1
binder,measurement,setting,value
B1,glycan array binding signal (z-score),[1],-0.306
same,glycan array binding signal (z-score),[2],-0.153
same,glycan array binding signal (z-score),[3],-0.314
same,glycan array binding signal (z-score),[4],-0.296
same,glycan array binding signal (z-score),[5],-0.294
same,glycan array binding signal (z-score),[6],-0.267
same,glycan array binding signal (z-score),[7],-0.289
same,glycan array binding signal (z-score),[8],-0.295
same,glycan array binding signal (z-score),[9],5.8
same,glycan array binding signal (z-score),[10],0.989
same,glycan array binding signal (z-score),[11],-0.313
same,glycan array binding signal (z-score),[12],-0.298
same,glycan array binding signal (z-score),[13],-0.31
same,glycan array binding signal (z-score),[14],-0.303
same,glycan array binding signal (z-score),[15],-0.247
same,glycan array binding signal (z-score),[16],-0.266
same,glycan array binding signal (z-score),[17],-0.313
same,glycan array binding signal (z-score),[18],-0.309
same,glycan array binding signal (z-score),[19],-0.304
same,glycan array binding signal (z-score),[20],-0.305
same,glycan array binding signal (z-score),[21],-0.299
same,glycan array binding signal (z-score),[22],-0.267
same,glycan array binding signal (z-score),[23],-0.281
same,glycan array binding signal (z-score),[24],-0.288
same,glycan array binding signal (z-score),[25],-0.32
same,glycan array binding signal (z-score),[26],-0.312
same,glycan array binding signal (z-score),[27],-0.301
same,glycan array binding signal (z-score),[28],-0.286
same,glycan array binding signal (z-score),[29],-0.27
same,glycan array binding signal (z-score),[30],5.38
same,glycan array binding signal (z-score),[31],-0.028
same,glycan array binding signal (z-score),Fuc(a1-3)GlcNAc,3.92
same,glycan array binding signal (z-score),[32],-0.293
same,glycan array binding signal (z-score),[33],0.827
same,glycan array binding signal (z-score),[34],-0.29
same,glycan array binding signal (z-score),[35],-0.189
same,glycan array binding signal (z-score),[36],-0.264
